Values marked as one replicate rest on one cluster of the flow cell; about a third of the high ones do not repeat.
Tested on: ATP
Assay: switch fluorescence ratio, 500 uM ATP over buffer (Cy3 cluster intensity, sum of 5 cycles each) (fold (ratio)); higher = stronger signal-on switching upon ATP binding; sequences stand for … in TCGTCGGCAGCGTCAGATGTGTATAAGAGACAGTTTTTTTTTTTTTTTTTTTTTTTTT…TC
Conditions: aptamer strand: ATP DNA aptamer (quencher-CACCTGGGGGAGTATTGCGGAGGAAGG + anchor), 100 nM annealed; ATP concentration: 500 uM; one replicate
Outline: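 Cy3-labelled switching-strand clusters on a modified Illumina MiSeq flow-cell were annealed to 100 nM quencher-labelled ATP aptamer, imaged in selection buffer, then imaged after 15 min with 500 uM ATP at 22 °C. Five buffer/ATP cycles ran, with NaOH stripping and re-annealing between them. The fluorescence ratio is summed target-cycle over summed buffer-cycle Cy3 intensity per cluster, averaged per switch-domain sequence. Clusters outside 100-1000 RFU were excluded.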
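Also: ATP exposure 15 min at 22 °C before imaging.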

Sequence	switch fluorescence ratio
AAAGTAGCGT	1.04
TGTTAGTGT	1.01
TCTGCGGTGC	1.34
TCTTGTCAGC	0.999
AAGTGTGTTG	0.959
TGAGCTCAT	0.948
TCCGCCGCT	3.41
TTACGAGGTT	1
CTCGACGGTC	1.04
CCCCGGTACA	1.36
CGAAAATAGG	1
TAAAGCGTCG	0.974
GACGCGGTCG	0.926
TATGGGAGCC	1.05
GGGCACAGTG	1.04
TGGGATAGGG	0.98
GCCAATTCGC	1.08
CGATGGCACG	1.03
TGGCTTGAGC	1.01
GGGACAA	1.01
AATCTTCAAA	1.07
CGTGCTAGGA	1.01
GTTGAGAAAT	0.916

Sequence	switch fluorescence ratio
CTATGAGCAG	1.13
AGGGGTCAAC	0.969
CGTTCGATGG	1.01
CGGGAAGATA	1.07
TCAAGCTGGT	1.02
AGAAGATACC	1.07
ATATTCGAT	1.01
CCACTAAATC	2.18
CGAGGGCGTA	0.951
ATTAGCCTAC	1.1
CACATCGCCC	1.03
ACAGCTCTTC	0.968
CGTGGTTTCG	1.03
CCTTTACAT	1.07
GAACTTTGTG	1.01
CTCTAAGGCG	1.04
GAGGGGCCAT	0.97
TGTGAATTAT	0.987
GCTGCATCTA	1.01
GTAATAGGAA	1.02
AATTTCGTGT	0.975
AATTATTCAG	1.01
CACGCGAATA	1.61

Sequence	switch fluorescence ratio
CAAAGTGTA	1.15
GTTGAAGGGT	0.988
CAAACATAAC	1.14
CATCTGACTT	1.05
CCAGGTTTC	1.03
GTATGGACA	1.01
CAACACGATG	1.03
TTAGGCTCTT	1.02
TATTAGTTAT	1.02
ACTGTGTAAG	0.98
GCGCACCACT	1.18
TAGCACGCTC	1.1
TAAGTCTAGT	0.975
AGAGGTTAAT	1.04
CTCTACAATT	1.11
CCCCCGGAAG	1.96
GGATAGCCTA	0.956
AATGGGTATA	1.04
CTGGGGCAAT	4.86
TGGACAACGG	1
GACGCACGGA	1.26
TTATGATCTT	0.97
GCGATAGTTT	1.05

Sequence	switch fluorescence ratio
TACAAGGCTC	1.21
TCCGACTTAA	3.45
GGCATCTACA	1.07
ATCTTTGAGG	0.973
TGGTCCAAAA	1.02
TATGGATA	1.01
GTGATTTTTA	0.994
TGACCCCGCT	1.09
TGGCTAAAA	0.99
TCAGTACTA	1.02
GAATCATAAG	1
GCAGGGTTAA	0.982
AAAGTCACGT	1.04
TATCTAAAGC	0.987
CTTTCTCTCC	1.13
GGCTTTTGAA	0.995
GGACGACAAT	1.4
CTGAAGTGCA	1.05
ATGTAAAAAT	0.986
TCTCGACTTA	1.01
CTGAACAATA	1.62
GTGTGTGAGA	1
CGGTTATC	1.61

Sequence	switch fluorescence ratio
AACCTGTCCG	1.33
TGCGCTAGAG	1.07
ACTTGGGCGC	1.02
CAGGACAACT	1.08
GTCCCAGCTC	1.07
ACACGCGGAA	1.06
ATTAAAAACG	1.04
GCTACTATGG	0.973
GGACGCTATT	1.59
TGGTCTAGGG	0.94
TAAGACTTGT	0.993
ATAACAAAA	1.06
ATAGACGTC	1.02
AAACGGGCTG	0.961
AGAATGGCGC	0.968
GGGCAGGACC	1.01
TTCTGCAAAA	1.2
TTCCTTTCAT	0.98
TTGTGCCTTC	1.04
GGTGGGTTAC	1.05
GTATCGACAC	1.04
AACTGGCTCG	0.991
GCCGTGATGG	1.04

Sequence	switch fluorescence ratio
TTGCATTTAC	1.83
GGATAATCGC	1.01
CGCTCGATAG	1.23
ATTCTATTTA	0.99
TCGCAAAAAT	1.01
TAGAGTCTAG	0.993
AGAATGAGCT	0.998
ACCCGACGAA	1.48
ATCTTTAATG	1.01
CGTGTAGTTC	1.05
ATCTGTAGC	1.06
CCTAGCTATT	1.43
ACACAGGACA	1.17
GCGCCTTTGG	1.03
AGCTCAATTT	0.986
TTCATAGTAT	0.969
CATTTCATCT	0.999
GAGTTTCGGT	1.02
CCCAACACTT	1.14
CACGTATTTA	1.2
AGAATGTCAC	1.02
GCGAGTATTT	1.01
GCGTCCAGCA	1.01

Sequence	switch fluorescence ratio
CACCTGCGGT	1.02
GGATCAAGCC	0.967
TGTCTTTTAC	0.986
AGAGGAGAAG	0.975
ACGCCGTTCA	1.07
GAACTTCAAA	0.98
ATGCAGGGGC	1.07
TAGATGCCTT	1.03
GAAATTGCCA	0.979
TACCTGTGA	0.96
AAACGAAGAG	1.01
AGCCTACATG	0.97
CTTACCCTGG	1.11
CGGGATGGAA	1.03
TTGGGTGGGC	1.07
TGCATAGGTG	1.45
AATTCTACGT	1
TAAACAGGCG	0.986
ATTCTCATAT	0.991

— the supplement of paper PMC10126150
